Test results reported in patent EP4814014A1, “BINDING MOLECULE AND ANTIBODY-DRUG CONJUGATE AND USE THEREOF” (priority 2023, dated 2025).

B1: anti-cMet monoepitopic M-3 molecule (Fc fusion)
chain: EVQLVESGGGLIQAGGSLRLSCTASGNIFSSYHMGWFRQAPGKQREFIAYITTREITNYADSVKGRFTISRDNSKNTVYLQMNNLRSEDTAVYYCIADQSREIRRSWGQGTLVTVSS[human IgG1 Fc with changes not printed]
notes: Symmetrical double-chain form
B2: V-23-Fc (bispecific antibody)
chain 1: EVQLLESGGGLVQPGGSLRLSCAASGLTFSYYAMAWFRQAPGKEREFVAAINWNQGNTYNTDSVKGRFTISRDNSKNTVYLQMNSLTPEDTAVYYCAVRYNQASYLVARSSDYNYWGQGTLVTVSS[human IgG1 Fc with changes not printed]
chain 2: QSQLVESGGGLVKPGGSLRLSCVASGFTISRSIMSWYRQAPGKERDWVASIGSAGNTNYVDSVKGRFTISRDNAKNSLYLQMNSLRAEDTAVYYCKTTLAVSFSEYWGQGTLVTVSSGGGGSGGGGSEVQLVESGGGLVQPGGSLRLSCTASGNIFSSYHMGWFRQAPGKQREFIAYITTREITNYADSVKGRFTISRDNSKNTLYLQMNSLRAEDTAVYYCIADQSREIRRSWGQGTLVTVSS[human IgG1 Fc with changes not printed]
notes: Double-chain trispecific anti-EGFR/cMet antibody
B3: V-26-Fc (bispecific antibody)
chain 1: QVQLVESGGGLVQPGGSLRLSCAASGRTGSLHAMGWFRQAPGKERERVATLQLSDVSAVTADSVKGRFTISTDNSKNSVYLQMNSLRAEDTAVYYCTASRSPSGIRYYKPDYWGQGTLVTVSS[human IgG1 Fc with changes not printed]
chain 2: QSQLAESGGGLVQSGGSLGLSCVASGFTISRSIMSWYRQPPGKERDWVASIGSAGNTNYVDSVKGRFTISRDVAKNTVYLQMNSLKPEDTAVYYCKTTLAVSFSEYWGQGTQVTVSSGGGGSGGGGSEVQLVESGGGLIQAGGSLRLSCTASGNIFSSYHMGWFRQAPGKQREFIAYITTREITNYADSVKGRFTISRDNSKNTVYLQMNNLRSEDTAVYYCIADQSREIRRSWGQGTLVTVSS[human IgG1 Fc with changes not printed]
notes: as for B2
B4: V-17-Fc (bispecific antibody)
chain 1: QVQLVESGGGLVQPGGSLRLSCAASGRTGSLHAMGWFRQAPGKERERVATLRLSDVSAVTADSVKGRFTISTDNSKNTLYLQMNSLRAEDTAVYYCTASRSPSGIRYYKPDYWGQGTLVTVSS[human IgG1 Fc with changes not printed]
chain 2: QSQLVESGGGLVKPGGSLRLSCVASGFTISRSIMSWYRQAPGKERDWVASIGSAGNTNYVDSVKGRFTISRDNAKNSLYLQMNSLRAEDTAVYYCKTTLAVSFSEYWGQGTLVTVSSGGGGSGGGGSEVQLVESGGGLVQPGGSLRLSCTASGNIFSSYHMGWFRQAPGKQREFIAYITTREITNYADSVKGRFTISRDNSKNTLYLQMNSLRAEDTAVYYCIADQSREIRRSWGQGTLVTVSS[human IgG1 Fc with changes not printed]
notes: as for B2

Columns and labels:
human cMet on cells = biological target: T1, human cMet on cells (human, UniProt P08581); assay: FACS on EBC-1 cells
Sequence of human cMet on cells (P08581 25-1390): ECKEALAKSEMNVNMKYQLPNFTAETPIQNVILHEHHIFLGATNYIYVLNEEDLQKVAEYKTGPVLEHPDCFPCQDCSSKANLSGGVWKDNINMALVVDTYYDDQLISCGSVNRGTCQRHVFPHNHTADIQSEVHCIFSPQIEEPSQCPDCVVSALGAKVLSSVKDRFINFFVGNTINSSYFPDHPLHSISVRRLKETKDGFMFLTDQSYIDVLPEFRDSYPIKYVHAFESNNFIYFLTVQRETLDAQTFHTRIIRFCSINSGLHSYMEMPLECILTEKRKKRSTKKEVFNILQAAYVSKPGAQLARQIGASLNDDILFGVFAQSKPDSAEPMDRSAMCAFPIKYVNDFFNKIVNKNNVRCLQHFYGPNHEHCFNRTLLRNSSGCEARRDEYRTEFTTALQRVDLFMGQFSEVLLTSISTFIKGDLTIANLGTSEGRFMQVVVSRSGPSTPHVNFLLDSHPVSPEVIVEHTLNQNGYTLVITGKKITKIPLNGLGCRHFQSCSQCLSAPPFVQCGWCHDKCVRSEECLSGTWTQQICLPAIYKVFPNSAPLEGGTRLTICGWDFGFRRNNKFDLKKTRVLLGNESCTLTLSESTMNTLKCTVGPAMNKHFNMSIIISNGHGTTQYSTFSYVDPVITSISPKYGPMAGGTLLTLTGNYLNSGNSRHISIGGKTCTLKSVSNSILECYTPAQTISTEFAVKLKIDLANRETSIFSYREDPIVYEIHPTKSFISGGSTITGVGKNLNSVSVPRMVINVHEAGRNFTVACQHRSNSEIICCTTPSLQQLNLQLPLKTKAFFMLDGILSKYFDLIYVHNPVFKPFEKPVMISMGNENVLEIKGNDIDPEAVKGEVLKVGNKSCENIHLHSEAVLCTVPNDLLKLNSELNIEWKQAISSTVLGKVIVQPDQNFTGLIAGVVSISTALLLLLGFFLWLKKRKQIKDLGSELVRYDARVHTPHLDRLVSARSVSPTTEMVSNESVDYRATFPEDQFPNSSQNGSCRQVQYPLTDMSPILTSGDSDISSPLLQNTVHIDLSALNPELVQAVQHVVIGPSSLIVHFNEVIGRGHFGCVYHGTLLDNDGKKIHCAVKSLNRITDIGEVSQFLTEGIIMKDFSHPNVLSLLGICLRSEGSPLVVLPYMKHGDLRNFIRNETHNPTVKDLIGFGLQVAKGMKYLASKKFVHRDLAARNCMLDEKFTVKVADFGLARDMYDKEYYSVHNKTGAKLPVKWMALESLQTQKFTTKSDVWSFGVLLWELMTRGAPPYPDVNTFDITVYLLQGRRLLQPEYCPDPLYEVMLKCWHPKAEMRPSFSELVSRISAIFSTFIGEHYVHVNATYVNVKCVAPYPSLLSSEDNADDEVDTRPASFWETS
T1 construct: whole, on cells; Cell lines: CHO-S-cMet, CHOK1-hucMet, EBC-1, MKN45, NCI-H1975; the cell line is named under assay; also called CHO-S-cMet; CHOK1-hucMet

[1] = biological target: T2, human EGFR-his (ECD, Met1-Ser645) (human, UniProt P00533 in part); assay: SPR, antigen amine-coupled on GLM chip, antibody injected, 1:1 model
T2 construct: range 1-645; Bought; range as printed includes Met1

[2] = biological target: T3, cynomolgus monkey EGFR-his (ECD, Met1-Ser645) (cynomolgus monkey, UniProt A0A2K5WK39 1-645); assay: as above
T3 construct: range 1-645; Bought; range as printed includes Met1

[3] = biological target: T4, cynomolgus monkey cMet-his (ECD, Met1-Thr932) (cynomolgus monkey, UniProt A0A2K5UM36 25-932); assay: as above
T4 construct: Bought; range as printed includes Met1

[4] = biological target: T5, human cMet-his (ECD, Met1-Thr932) (human, UniProt P08581 25-932); assay: as above
T5 construct: Bought; range as printed includes Met1

Row | Binder | binding result (human cMet on cells) | Kd [1] [nM] | koff [1] [s⁻¹] | kon [1] [M⁻¹ s⁻¹] | Kd [2] [nM] | koff [2] [s⁻¹] | kon [2] [M⁻¹ s⁻¹] | Kd [3] [nM] | koff [3] [s⁻¹] | kon [3] [M⁻¹ s⁻¹] | Kd [4] [nM] | koff [4] [s⁻¹] | kon [4] [M⁻¹ s⁻¹]
1 | B1 | binds | – | – | – | – | – | – | – | – | – | – | – | –
2 | B2 | – | 9.63 | 0.000202 | 21000 | 11.1 | 0.000314 | 28200 | 2.33 | 0.000225 | 96800 | 75.2 | 0.00215 | 28600
3 | B3 | – | 242000 | 0.0988 | – | 3740 | 0.219 | 58700 | 0.73 | 0.000123 | 168000 | 1.34 | 9.7e-05 | 72600
4 | B4 | – | – | – | – | – | – | – | 1.95 | 0.000154 | 79300 | 1.4 | 0.000137 | 97800
